Consider five molecules from PMC10509304.

Protein sequences, listed by entry. Tags and fused reporters are not part of them.
UniProt P06804: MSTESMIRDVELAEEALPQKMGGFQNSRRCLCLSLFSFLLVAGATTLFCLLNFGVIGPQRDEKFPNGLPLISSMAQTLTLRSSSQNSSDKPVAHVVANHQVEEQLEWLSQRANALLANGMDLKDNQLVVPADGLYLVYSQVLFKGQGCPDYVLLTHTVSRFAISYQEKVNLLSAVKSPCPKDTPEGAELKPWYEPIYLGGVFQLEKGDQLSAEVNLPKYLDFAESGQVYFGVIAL

The target of assay [1] is T1, murine CD9 with C-terminal 3xFLAG epitope, transiently expressed in HEK293 (mouse) (UniProt P40240).
T1 sequence: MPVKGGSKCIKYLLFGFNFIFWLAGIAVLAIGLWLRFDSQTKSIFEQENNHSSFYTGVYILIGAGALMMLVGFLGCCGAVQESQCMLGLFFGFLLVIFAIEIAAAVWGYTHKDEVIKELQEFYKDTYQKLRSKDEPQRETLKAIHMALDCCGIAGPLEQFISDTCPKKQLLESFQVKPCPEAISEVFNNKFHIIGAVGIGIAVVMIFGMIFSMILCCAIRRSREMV
Description: co-IP; transient co-expression in HEK293 cells; lysis in IP buffer with 1% Triton X-100; 3xFLAG-tagged tetraspanin precipitated with anti-FLAG M2 agarose; Western blot. On the technique in general: Immunoblotting shows a protein as a band on a membrane.

Assay [2] has as its target T2, murine CD81 with C-terminal 3xFLAG epitope, transiently expressed in HEK293 (mouse) (UniProt P35762).
T2 sequence: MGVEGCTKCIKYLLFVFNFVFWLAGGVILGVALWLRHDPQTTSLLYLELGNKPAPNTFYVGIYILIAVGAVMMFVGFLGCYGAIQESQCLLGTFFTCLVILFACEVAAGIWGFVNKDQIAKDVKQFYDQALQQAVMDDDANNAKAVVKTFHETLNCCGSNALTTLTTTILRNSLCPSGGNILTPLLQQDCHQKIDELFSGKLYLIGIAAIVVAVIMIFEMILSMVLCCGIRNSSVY
The assay is described as above.

The target in assay [3] is T1, murine CD9 with C-terminal 3xFLAG epitope, transiently expressed in HEK293 (mouse). Nature of the assay: co-IP; transient co-expression in HEK293 cells; lysis in IP buffer (50 mM Tris/HCl pH 7.4, 150 mM NaCl, 4 mM EDTA) with 1% Brij-98; 3xFLAG-tagged tetraspanin precipitated with anti-FLAG M2 agarose overnight at 4°C; Western blot.
In assay [4] the target is T2, murine CD81 with C-terminal 3xFLAG epitope, transiently expressed in HEK293 (mouse). Described as above.
Assay [5] concerns the target T3, murine CD9 with C-terminal 3xFLAG epitope, stably expressed in wild-type MEFs (mouse) (UniProt P40240).
T3 sequence: T1 sequence
Nature of the assay: co-IP; wild-type MEFs stably overexpressing 3xFLAG-tagged tetraspanin; lysis with 1% Brij-98; lysates pre-cleared with non protein-conjugated Sepharose beads; anti-FLAG M2 agarose; endogenous proteins detected by Western blot.

In assay [6] the target is T4, murine CD81 with C-terminal 3xFLAG epitope, stably expressed in wild-type MEFs (mouse) (UniProt P35762).
T4 sequence: T2 sequence
The assay is described as above.

Assay [7] concerns the target T5, murine CD82 with C-terminal 3xFLAG epitope, stably expressed in wild-type MEFs (mouse) (UniProt P40237).
T5 sequence: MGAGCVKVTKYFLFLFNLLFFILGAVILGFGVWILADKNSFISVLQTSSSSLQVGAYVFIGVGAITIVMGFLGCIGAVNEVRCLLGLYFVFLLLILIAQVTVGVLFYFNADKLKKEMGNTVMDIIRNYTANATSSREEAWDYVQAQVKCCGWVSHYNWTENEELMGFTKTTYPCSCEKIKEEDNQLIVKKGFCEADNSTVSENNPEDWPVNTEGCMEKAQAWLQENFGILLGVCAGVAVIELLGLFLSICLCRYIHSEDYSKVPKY
The description is as above.

For assay [8], the target named is T6, murine CD82 with C-terminal 3xFLAG epitope, transiently expressed in HEK293 (mouse) (UniProt P40237).
T6 sequence: T5 sequence
Description: co-IP; transient co-expression in HEK293 cells; lysis in IP buffer with 1% Triton X-100; 3xFLAG-tagged tetraspanin precipitated with anti-FLAG M2 agarose; Western blot.

Assay [9] addresses T1, murine CD9 with C-terminal 3xFLAG epitope, transiently expressed in HEK293 (mouse). The assay is described as above. This is another data set of the same source.
For assay [10], the target named is T2, murine CD81 with C-terminal 3xFLAG epitope, transiently expressed in HEK293 (mouse). The description is as above. This is another data set of the same source.
Assay [11] addresses T6, murine CD82 with C-terminal 3xFLAG epitope, transiently expressed in HEK293 (mouse). Description: co-IP; transient co-expression in HEK293 cells; lysis in IP buffer (50 mM Tris/HCl pH 7.4, 150 mM NaCl, 4 mM EDTA) with 1% Brij-98; 3xFLAG-tagged tetraspanin precipitated with anti-FLAG M2 agarose overnight at 4°C; Western blot.
In assay [12] the target is T1, murine CD9 with C-terminal 3xFLAG epitope, transiently expressed in HEK293 (mouse). The description is as above. This is another data set of the same source.
For assay [13], the target named is T2, murine CD81 with C-terminal 3xFLAG epitope, transiently expressed in HEK293 (mouse). The assay is described as above. This is another data set of the same source.

These are yes or no findings as the source states them, for the method shown. In cells and extracts the contact can be indirect. Some entries that bind do so weakly or less than the wild type. Sequences can lack the tags named with a protein.

Regarding “full-length, transmembrane murine tumor necrosis factor (TNF) with an N-terminal HA and a C-terminal V5 epitope (from UniProt P06804 1-235)”, the binding result in assay [1], in [2], in [3] and in assay [4] was “binds” in each case.

B1: endogenous SPPL2a of MEFs (enzyme, UniProt Q9JJF9 26-523)
chain: QEAILHASTNGVSSLSKDYCMYYNNNWTRLPSSLENATSLSLMNLTGTALCHLSDIPPDGIRNKAVVVHWGPCHFLEKARIAQEGGAAALLIANNSVLIPSSRNKSTFQNVTVLIAVITQKDFKDMKETLGDDITVKMYSPSWPNFDYTLVVIFVIAVFTVALGGYWSGLIELENMKSVEDAEDRETRKKKDDYLTFSPLTVVVFVVICCIMIVLLYFFYRWLVYVMIAIFCIASSMSLYNCLSALIHRMPCGQCTILCCGKNIKVSLIFLSGLCISVAVVWAVFRNEDRWAWILQDILGIAFCLNLIKTMKLPNFMSCVILLGLLLIYDVFFVFITPFITKNGESIMVELAAGPFENAEKLPVVIRVPKLMGYSVMSVCSVPVSVLGFGDIIVPGLLIAYCRRFDVQTGSSIYYISSTIAYAVGMIITFVVLMVMKTGQPALLYLVPCTLITVSVVAWSRKEMKKFWKGSSYQVMDHLDYSTNEENPVTTDEQIVQQ
With B1, the binding entry in [5], in assay [6] and in assay [7] was “binds” in each case.

B2: endogenous SPPL2b of MEFs (enzyme, UniProt Q3TD49 20-578)
chain: EFGVLRVVSQTSRTRSRDYCILYNPQWAHLPHDLSKVSLLKLRDLSTTQLCSYLDVPAEDFTNQIALVARGNCTFYEKVRLAQGSGAHGLLIVSKEKLVPPGGNKTQYEEISIPVALLSHRDLQDIFRRFGREVMVALYAPSEPVMDYNMVIIFVMAVGTVAIGGYWAGSHDVKKYMKHKRDDGPEKQEDEAVDVTPVMICVFVVMCCFMLVLLYYFYDRLVYVIIGIFCLASSTGLYSCLAPFVRKLPFCTCRVPDNNLPYFHKRPQARMLLLALFCVTVSVVWGIFRNEDQWAWVLQDTLGIAFCLYMLKTIRLPTFKACTLLLLVLFIYDIFFVFITPFLTKSGNSIMVEVATGPSNSSTHEKLPMVLKVPRLNTSPLSLCDRPFSLLGFGDILVPGLLVAYCHRFDIQVQSSRIYFVACTIAYGLGLLVTFVALVLMQRGQPALLYLVPCTLLTSCTVALWRRELGAFWTGSGFAKDAPQTPWAATQGPVPPKAVGSSLSEQPPSEELAKSPLSTEEAGAADPAKDPDNPVASPLSPSNGDEAQPIPVVKPETSA
Consider B2, for which the binding entry in [5], in assay [6] and in assay [7] was “binds” in each case.

B3: murine SPPL2b fused to a C-terminal Myc-tag (enzyme, UniProt Q3TD49 20-578)
chain: B2 chain
With B3, the binding entry in assay [8], in [9], in assay [10], in assay [11], in [12] and in assay [13] was “binds” in each case.

B4: lysosomal protein TMEM192, endogenous in MEFs (protein, UniProt Q9CXT7 1-266)
chain: MAAAGRLEDSSLDILQSMDDDPLLDTQPLPHHSLQAQFRPRFHPLPTVIIANLLLLIHVVFVVLAFLTGVPCLYPNPTEDKCPENYTSPLKVQTAIILGKLILWILHLLFERYVQYHHRKVRSRGYSQIYRSTRHLKTLALTIHSSGNTALLLLLCVQHSFPEPSKLYLELILAVLALELICSLSCLILYIVKIRRFNRAKPLPDVLEEEKIYAYPSNTASETGFRTVSSLEEIVEKQEDIIVYLKRHNALLSKRLLELATQPART
In the case of B4, the binding result in [5], in [6] and in [7] was “no binding” throughout.
